Over roughly 81,000 sequences, “one-hybrid fitness for binding parS DNA” has its median near -0.17; the highest 2% begin near 0.51. The list shows a part of the results.
B1: Caulobacter ParB omega fusion; a variant is named by its letters at X, in order, B8GW30 (parent)
chain: MESVVVGEPGMSEGRRGLGRGLSALLGEVDAAPAQAPGEQLGGSREAPIEILQRNPDQPRRTFREEDLEDLSNSIREKGVLQPILVRPSPDTAGEYQIVAGERAWRAAQRAGLKTVPIMVRELDDLAVLEIGIIENVQRADLNVLEEALSYKVLMEKFERTQENIAQTIGKSXSHVANXMRLLXLPDEVQSYLVSGELTAXHARAIAAAADPVALAKQIIEGGLSVRETEALARKAPNLSAGKSKGGRPPRVKDTDTQALESDLSSVLGLDVSIDHRGSTGTLTITYATLEQLDDLCNRLTRGI

Variants of: B1
Assay: one-hybrid fitness for binding parS DNA (scaled: cognate 1, non-cognate 0); higher = stronger binding
Conditions: with parS DNA site
Procedure, shortened: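 Bacterial one-hybrid selection in E. coli USO rpoZ- hisB- pyrF- with a HIS3 reporter carrying the site 19 bp from the promoter, screening Caulobacter ParB libraries with four specificity codons randomised (NNS). Cells grew 48 hours at 37°C on M9-minus-histidine plus 0.1 mM IPTG and 5 mM 3-AT. Plasmids before and after selection were Illumina-sequenced, three replicate libraries pooled, and variants under 10 reads dropped. Fitness is the log change in variant-to-wild-type read ratio, rescaled to cognate 1, non-cognate 0.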

Row | Variant | one-hybrid fitness for binding parS DNA
1 | NCER | ≤ 0.2
2 | NNQE | ≤ 0.2
3 | LAIL | ≤ 0.2
4 | RMTT | 0.945
5 | QTEL | ≤ 0.2
6 | NPTC | ≤ 0.2
7 | PVCR | ≤ 0.2
8 | HINA | ≤ 0.2
9 | QLNA | ≤ 0.2
10 | IKTC | ≤ 0.2
11 | GNDS | ≤ 0.2
12 | ANHI | ≤ 0.2
13 | THVT | ≤ 0.2
14 | CQTT | ≤ 0.2
15 | QELN | 0.3
16 | SVFV | ≤ 0.2
17 | VGSG | ≤ 0.2
18 | NKQR | ≤ 0.2
19 | AAVG | ≤ 0.2
20 | FSAL | ≤ 0.2
21 | PRWV | ≤ 0.2
22 | QVCK | ≤ 0.2
23 | KRAH | ≤ 0.2
24 | PHMH | ≤ 0.2
25 | LHKC | ≤ 0.2

Row | Variant | one-hybrid fitness for binding parS DNA
26 | ALMW | ≤ 0.2
27 | EVWS | ≤ 0.2
28 | ISGM | ≤ 0.2
29 | WMML | ≤ 0.2
30 | RNVW | ≤ 0.2
31 | VDCG | ≤ 0.2
32 | LNTN | ≤ 0.2
33 | PCCG | ≤ 0.2
34 | TDVT | ≤ 0.2
35 | HRYK | ≤ 0.2
36 | NGKR | ≤ 0.2
37 | FSTS | ≤ 0.2
38 | QQFW | ≤ 0.2
39 | VVSV | ≤ 0.2
40 | WTHS | ≤ 0.2
41 | KRAP | ≤ 0.2
42 | NHPW | ≤ 0.2
43 | REHC | ≤ 0.2
44 | MPRT | ≤ 0.2
45 | DPPW | ≤ 0.2
46 | RGHC | 0.59
47 | WTDW | ≤ 0.2
48 | QTCA | ≤ 0.2
49 | CCLR | ≤ 0.2
50 | HQGG | ≤ 0.2

Row | Variant | one-hybrid fitness for binding parS DNA
51 | QYSA | ≤ 0.2
52 | RQHP | ≤ 0.2
53 | GPRP | ≤ 0.2
54 | HDMC | ≤ 0.2
55 | DYCS | ≤ 0.2
56 | QITK | ≤ 0.2
57 | FHPR | ≤ 0.2
58 | PAVP | ≤ 0.2
59 | MSRE | ≤ 0.2
60 | VKST | ≤ 0.2
61 | IQKV | ≤ 0.2
62 | TNIC | ≤ 0.2
63 | QCSS | ≤ 0.2
64 | LPVP | ≤ 0.2
65 | RCFW | 0.256
66 | MTHR | ≤ 0.2
67 | NFAY | ≤ 0.2
68 | NKAA | ≤ 0.2
69 | PLDF | ≤ 0.2
70 | HQTY | ≤ 0.2
71 | VCSD | ≤ 0.2
72 | MQTC | ≤ 0.2
73 | KALW | ≤ 0.2
74 | SRAP | ≤ 0.2
75 | YLWR | ≤ 0.2

Row | Variant | one-hybrid fitness for binding parS DNA
76 | VRDT | ≤ 0.2
77 | NFAC | ≤ 0.2
78 | PNWT | ≤ 0.2
79 | VILP | ≤ 0.2
80 | FRPE | ≤ 0.2
81 | DAEE | ≤ 0.2
82 | IENC | ≤ 0.2
83 | DALG | ≤ 0.2
84 | YSQG | ≤ 0.2
85 | RRSH | ≤ 0.2
86 | WGAY | ≤ 0.2
87 | ADPS | ≤ 0.2
88 | LIRA | ≤ 0.2
89 | LGER | ≤ 0.2
90 | KPHA | ≤ 0.2
91 | SCRF | ≤ 0.2
92 | QDAL | ≤ 0.2
93 | KLEH | ≤ 0.2
94 | WWVG | ≤ 0.2
95 | HFHC | ≤ 0.2
96 | VYWT | ≤ 0.2
97 | DSMG | ≤ 0.2
98 | ESRW | ≤ 0.2
99 | TGLH | ≤ 0.2
100 | MELL | ≤ 0.2

Row | Variant | one-hybrid fitness for binding parS DNA
101 | LPRW | ≤ 0.2
102 | DFAS | ≤ 0.2
103 | YNVG | ≤ 0.2
104 | TSML | ≤ 0.2
105 | RYLC | 0.955
106 | AMTN | ≤ 0.2
107 | RIFE | 0.249
108 | RNTR | ≤ 0.2
109 | PTES | ≤ 0.2
110 | SLYR | ≤ 0.2
111 | HRCL | ≤ 0.2
112 | TYLD | ≤ 0.2
113 | QAGC | ≤ 0.2
114 | QKLR | ≤ 0.2
115 | MATA | ≤ 0.2
116 | SLVS | ≤ 0.2
117 | FAFL | ≤ 0.2
118 | VWHR | ≤ 0.2
119 | ILNQ | ≤ 0.2
120 | EDWY | ≤ 0.2
121 | VREC | ≤ 0.2
122 | DKPR | ≤ 0.2
123 | NMVW | ≤ 0.2
124 | TYTL | ≤ 0.2
125 | GRRC | ≤ 0.2

Row | Variant | one-hybrid fitness for binding parS DNA
126 | HQPW | ≤ 0.2
127 | VWSQ | ≤ 0.2
128 | HCYM | ≤ 0.2
129 | PYAW | ≤ 0.2
130 | IRPA | ≤ 0.2
131 | EQCT | ≤ 0.2
132 | LPST | ≤ 0.2
133 | RIWL | ≤ 0.2
134 | RSNN | 0.445
135 | CRGR | ≤ 0.2
136 | ALPL | ≤ 0.2
137 | YGVH | ≤ 0.2
138 | NWKG | ≤ 0.2
139 | RWPY | ≤ 0.2
140 | YTKH | ≤ 0.2
141 | ECAR | ≤ 0.2
142 | FGDT | ≤ 0.2
143 | SETY | ≤ 0.2
144 | LYNF | ≤ 0.2
145 | QIGN | ≤ 0.2
146 | TQTH | ≤ 0.2
147 | RNAN | 0.301
148 | VNGG | ≤ 0.2
149 | PPPA | ≤ 0.2
150 | SWST | ≤ 0.2

Row | Variant | one-hybrid fitness for binding parS DNA
151 | LAIR | ≤ 0.2
152 | DKLS | ≤ 0.2
153 | KINE | ≤ 0.2
154 | FNPC | ≤ 0.2
155 | KPSA | ≤ 0.2
156 | NPCP | ≤ 0.2
157 | IAAQ | ≤ 0.2
158 | NWVC | ≤ 0.2
159 | GAPD | ≤ 0.2
160 | MPHV | ≤ 0.2
161 | AQRT | ≤ 0.2
162 | FMTY | ≤ 0.2
163 | LEHR | ≤ 0.2
164 | MALF | ≤ 0.2
165 | GVWT | ≤ 0.2
166 | SPPI | ≤ 0.2
167 | NTNS | ≤ 0.2
168 | PAGD | ≤ 0.2
169 | RSQR | ≤ 0.2
170 | ASDA | ≤ 0.2
171 | TPES | ≤ 0.2
172 | TWIS | ≤ 0.2
173 | CVRT | ≤ 0.2
174 | QCNA | ≤ 0.2
175 | DIPF | ≤ 0.2

Row | Variant | one-hybrid fitness for binding parS DNA
176 | LGEC | ≤ 0.2
177 | SQGG | ≤ 0.2
178 | TICS | ≤ 0.2
179 | WMPR | ≤ 0.2
180 | NGHR | ≤ 0.2
181 | CKLS | ≤ 0.2
182 | GQPR | ≤ 0.2
183 | PSNP | ≤ 0.2
184 | QCMW | ≤ 0.2
185 | RRYI | ≤ 0.2
186 | VEPM | ≤ 0.2
187 | QYYF | ≤ 0.2
188 | TYRW | ≤ 0.2
189 | PYEH | ≤ 0.2
190 | IGMR | ≤ 0.2
191 | HSDF | ≤ 0.2
192 | GCRN | ≤ 0.2
193 | LHMS | ≤ 0.2
194 | GNHR | ≤ 0.2
195 | CSTQ | ≤ 0.2

From a collection of fitness landscapes (doi:10.1016/j.celrep.2020.107928)
